Experimental data published in the supplement of paper PMC8728848.
The list shows a part of the results.

Key:
Assay in all cases: glycan array binding signal (z-score within array); higher = stronger binding
Settings in all cases: glycan notation: IUPAC condensed, linker removed
[1] = target: Gal(b1-4)GlcNAc(b1-3)Gal(b1-3)GlcNAc
Procedure, shortened: (§1)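 From the Consortium for Functional Glycomics database, 3228 arrays were curated, keeping only those whose protein sequence was available. Binding is given as a within-array Z-score averaged across arrays sharing a protein sequence and across linkers. Negative Z-scores can be read as non-binding.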

[2] = target: Gal(b1-4)GlcNAc(b1-3)Gal(b1-4)Glc
Procedure, shortened: as §1

[3] = target: Gal(b1-4)GlcNAc(b1-3)Gal(b1-4)GlcNAc
Procedure, shortened: as §1

[4] = target: Gal(b1-4)GlcNAc(b1-3)Gal(b1-4)GlcNAc(b1-2)Man(a1-3)[Gal(b1-4)GlcNAc(b1-3)Gal(b1-4)GlcNAc(b1-2)Man(a1-6)]Man(b1-4)GlcNAc(b1-4)GlcNAc
Procedure, shortened: as §1

[5] = target: Gal(b1-4)GlcNAc(b1-3)Gal(b1-4)GlcNAc(b1-2)Man(a1-3)[Gal(b1-4)GlcNAc(b1-3)Gal(b1-4)GlcNAc(b1-2)Man(a1-6)]Man(b1-4)GlcNAc(b1-4)[Fuc(a1-6)]GlcNAc
Procedure, shortened: as §1

[6] = target: Gal(b1-4)GlcNAc(b1-3)Gal(b1-4)GlcNAc(b1-2)[Gal(b1-4)GlcNAc(b1-3)Gal(b1-4)GlcNAc(b1-6)]Man(a1-6)[Gal(b1-4)GlcNAc(b1-3)Gal(b1-4)GlcNAc(b1-2)Man(a1-3)]Man(b1-4)GlcNAc(b1-4)GlcNAc
Procedure, shortened: as §1

[7] = target: Gal(b1-4)GlcNAc(b1-3)Gal(b1-4)GlcNAc(b1-2)[Gal(b1-4)GlcNAc(b1-3)Gal(b1-4)GlcNAc(b1-6)]Man(a1-6)[Gal(b1-4)GlcNAc(b1-3)Gal(b1-4)GlcNAc(b1-2)Man(a1-3)]Man(b1-4)GlcNAc(b1-4)[Fuc(a1-6)]GlcNAc
Procedure, shortened: as §1

[8] = target: Gal(b1-4)GlcNAc(b1-3)Gal(b1-4)GlcNAc(b1-3)Gal(b1-4)GlcNAc
Procedure, shortened: as §1

[9] = target: Gal(b1-4)GlcNAc(b1-3)Gal(b1-4)GlcNAc(b1-3)Gal(b1-4)GlcNAc(b1-2)Man(a1-3)[Gal(b1-4)GlcNAc(b1-3)Gal(b1-4)GlcNAc(b1-3)Gal(b1-4)GlcNAc(b1-2)Man(a1-6)]Man(b1-4)GlcNAc(b1-4)GlcNAc
Procedure, shortened: as §1

[10] = target: Gal(b1-4)GlcNAc(b1-3)Gal(b1-4)GlcNAc(b1-3)Gal(b1-4)GlcNAc(b1-2)Man(a1-3)[Gal(b1-4)GlcNAc(b1-3)Gal(b1-4)GlcNAc(b1-3)Gal(b1-4)GlcNAc(b1-2)Man(a1-6)]Man(b1-4)GlcNAc(b1-4)[Fuc(a1-6)]GlcNAc
Procedure, shortened: as §1

[11] = target: Gal(b1-4)GlcNAc(b1-3)Gal(b1-4)GlcNAc(b1-3)Gal(b1-4)GlcNAc(b1-2)[Gal(b1-4)GlcNAc(b1-3)Gal(b1-4)GlcNAc(b1-3)Gal(b1-4)GlcNAc(b1-6)]Man(a1-6)[Gal(b1-4)GlcNAc(b1-3)Gal(b1-4)GlcNAc(b1-3)Gal(b1-4)GlcNAc(b1-2)Man(a1-3)]Man(b1-4)GlcNAc(b1-4)[Fuc(a1-6)]GlcNAc
Procedure, shortened: as §1

[12] = target: Gal(b1-4)GlcNAc(b1-3)Gal(b1-4)GlcNAc(b1-3)Gal(b1-4)GlcNAc(b1-3)Gal(b1-4)GlcNAc(b1-2)Man(a1-3)[Gal(b1-4)GlcNAc(b1-3)Gal(b1-4)GlcNAc(b1-3)Gal(b1-4)GlcNAc(b1-3)Gal(b1-4)GlcNAc(b1-2)Man(a1-6)]Man(b1-4)GlcNAc(b1-4)GlcNAc
Procedure, shortened: as §1

[13] = target: Gal(b1-4)GlcNAc(b1-3)Gal(b1-4)GlcNAc(b1-3)Gal(b1-4)GlcNAc(b1-3)Gal(b1-4)GlcNAc(b1-2)Man(a1-3)[Gal(b1-4)GlcNAc(b1-3)Gal(b1-4)GlcNAc(b1-3)Gal(b1-4)GlcNAc(b1-3)Gal(b1-4)GlcNAc(b1-2)Man(a1-6)]Man(b1-4)GlcNAc(b1-4)[Fuc(a1-6)]GlcNAc
Procedure, shortened: as §1

[14] = target: Gal(b1-4)GlcNAc(b1-3)Gal(b1-4)GlcNAc(b1-3)Gal(b1-4)GlcNAc(b1-3)Gal(b1-4)GlcNAc(b1-2)[Gal(b1-4)GlcNAc(b1-3)Gal(b1-4)GlcNAc(b1-3)Gal(b1-4)GlcNAc(b1-3)Gal(b1-4)GlcNAc(b1-6)]Man(a1-6)[Gal(b1-4)GlcNAc(b1-3)Gal(b1-4)GlcNAc(b1-3)Gal(b1-4)GlcNAc(b1-3)Gal(b1-4)GlcNAc(b1-2)Man(a1-3)]Man(b1-4)GlcNAc(b1-4)[Fuc(a1-6)]GlcNAc
Procedure, shortened: as §1

[15] = target: Gal(b1-4)GlcNAc(b1-3)Gal(b1-4)GlcNAc(b1-3)Gal(b1-4)GlcNAc(b1-3)Gal(b1-4)GlcNAc(b1-3)Gal(b1-4)GlcNAc(b1-2)Man(a1-3)[Gal(b1-4)GlcNAc(b1-3)Gal(b1-4)GlcNAc(b1-3)Gal(b1-4)GlcNAc(b1-3)Gal(b1-4)GlcNAc(b1-3)Gal(b1-4)GlcNAc(b1-2)Man(a1-6)]Man(b1-4)GlcNAc(b1-4)GlcNAc
Procedure, shortened: as §1

[16] = target: Gal(b1-4)GlcNAc(b1-3)Gal(b1-4)GlcNAc(b1-3)Gal(b1-4)GlcNAc(b1-3)Gal(b1-4)GlcNAc(b1-3)Gal(b1-4)GlcNAc(b1-2)Man(a1-3)[Gal(b1-4)GlcNAc(b1-3)Gal(b1-4)GlcNAc(b1-3)Gal(b1-4)GlcNAc(b1-3)Gal(b1-4)GlcNAc(b1-3)Gal(b1-4)GlcNAc(b1-2)Man(a1-6)]Man(b1-4)GlcNAc(b1-4)[Fuc(a1-6)]GlcNAc
Procedure, shortened: as §1

[17] = target: Gal(b1-4)GlcNAc(b1-3)Gal(b1-4)GlcNAc(b1-3)Gal(b1-4)GlcNAc(b1-3)Gal(b1-4)GlcNAc(b1-3)Gal(b1-4)GlcNAc(b1-2)[Gal(b1-4)GlcNAc(b1-3)Gal(b1-4)GlcNAc(b1-3)Gal(b1-4)GlcNAc(b1-3)Gal(b1-4)GlcNAc(b1-3)Gal(b1-4)GlcNAc(b1-6)]Man(a1-6)[Gal(b1-4)GlcNAc(b1-3)Gal(b1-4)GlcNAc(b1-3)Gal(b1-4)GlcNAc(b1-3)Gal(b1-4)GlcNAc(b1-3)Gal(b1-4)GlcNAc(b1-2)Man(a1-3)]Man(b1-4)GlcNAc(b1-4)[Fuc(a1-6)]GlcNAc
Procedure, shortened: as §1

[18] = target: Gal(b1-4)GlcNAc(b1-3)Gal(b1-4)GlcNAc(b1-3)Gal(b1-4)GlcNAc(b1-3)Gal(b1-4)GlcNAc(b1-3)Gal(b1-4)GlcNAc(b1-3)Gal(b1-4)GlcNAc(b1-2)Man(a1-3)[Gal(b1-4)GlcNAc(b1-3)Gal(b1-4)GlcNAc(b1-3)Gal(b1-4)GlcNAc(b1-3)Gal(b1-4)GlcNAc(b1-3)Gal(b1-4)GlcNAc(b1-3)Gal(b1-4)GlcNAc(b1-2)Man(a1-6)]Man(b1-4)GlcNAc(b1-4)GlcNAc
Procedure, shortened: as §1

[19] = target: Gal(b1-4)GlcNAc(b1-3)Gal(b1-4)GlcNAc(b1-3)GalNAc
Procedure, shortened: as §1

[20] = target: Gal(b1-4)GlcNAc(b1-3)Gal(b1-4)GlcNAc(b1-3)[Gal(b1-4)GlcNAc(b1-3)Gal(b1-4)GlcNAc(b1-6)]GalNAc
Procedure, shortened: as §1

[21] = target: Gal(b1-4)GlcNAc(b1-3)Gal(b1-4)GlcNAc(b1-6)[Gal(b1-3)]GalNAc
Procedure, shortened: as §1

[22] = target: Gal(b1-4)GlcNAc(b1-3)Gal(b1-4)[Fuc(a1-3)GlcNAc(b1-6)]Gal(b1-4)Glc
Procedure, shortened: as §1

[23] = target: Gal(b1-4)GlcNAc(b1-3)Gal(b1-4)[Fuc(a1-3)]GlcNAc(b1-3)Gal(b1-4)[Fuc(a1-3)]GlcNAc
Procedure, shortened: as §1

B1: PA-IL (Pseudomonas aeruginosa), Q05097 (protein)
chain: MAWKGEVLANNEAGQVTSIIYNPGDVITIVAAGWASYGPTQKWGPQGDREHPDQGLICHDAFCGALVMKIGNSGTIPVNTGLFRWVAPNNVQGAITLIYNDVPGTYGNNSGSFSVNIGKDQS
[1]
  glycan array binding signal (z-score): -0.216
[2]
  glycan array binding signal (z-score): -0.213
[3]
  glycan array binding signal (z-score): -0.169
[4]
  glycan array binding signal (z-score): 0.074
[5]
  glycan array binding signal (z-score): -0.091
[6]
  glycan array binding signal (z-score): 0.099
[7]
  glycan array binding signal (z-score): 0.45
[8]
  glycan array binding signal (z-score): -0.236
[9]
  glycan array binding signal (z-score): 0.09
[10]
  glycan array binding signal (z-score): -0.1
[11]
  glycan array binding signal (z-score): 0.032
[12]
  glycan array binding signal (z-score): -0.156
[13]
  glycan array binding signal (z-score): -0.138
[14]
  glycan array binding signal (z-score): -0.081
[15]
  glycan array binding signal (z-score): -0.195
[16]
  glycan array binding signal (z-score): -0.167
[17]
  glycan array binding signal (z-score): -0.097
[18]
  glycan array binding signal (z-score): -0.17
[19]
  glycan array binding signal (z-score): -0.026
[20]
  glycan array binding signal (z-score): 0.788
[21]
  glycan array binding signal (z-score): -0.04
[22]
  glycan array binding signal (z-score): -0.224
[23]
  glycan array binding signal (z-score): -0.223
